Hit rate of the full screen: of about 270,000 compounds, about 620 (0.23%) were called active. The inconclusive results got no clear call from the source; some entries with a clear call stand among them for comparison. Calls follow the shape of the dose curve; as a rule, active = well fitted inhibition curve with a large enough effect in the polarisation, with a control signal flat (not every such curve was filed as active); inconclusive = small, poorly fitted or top-dose-only effect, or effect the other way, or a change in a side signal; inactive = no such curve, though single readings can be large or run the other way; the % refers to the polarisation. Potencies of inconclusive entries are doubtful fits and often do not repeat. A note “side channel” means that the fit belongs to a control or component signal, not to the main read-out.
Target: Menin (Homo sapiens) (UniProt O00255)
UniProt O00255, sequence (O00255 whole entry, looked up): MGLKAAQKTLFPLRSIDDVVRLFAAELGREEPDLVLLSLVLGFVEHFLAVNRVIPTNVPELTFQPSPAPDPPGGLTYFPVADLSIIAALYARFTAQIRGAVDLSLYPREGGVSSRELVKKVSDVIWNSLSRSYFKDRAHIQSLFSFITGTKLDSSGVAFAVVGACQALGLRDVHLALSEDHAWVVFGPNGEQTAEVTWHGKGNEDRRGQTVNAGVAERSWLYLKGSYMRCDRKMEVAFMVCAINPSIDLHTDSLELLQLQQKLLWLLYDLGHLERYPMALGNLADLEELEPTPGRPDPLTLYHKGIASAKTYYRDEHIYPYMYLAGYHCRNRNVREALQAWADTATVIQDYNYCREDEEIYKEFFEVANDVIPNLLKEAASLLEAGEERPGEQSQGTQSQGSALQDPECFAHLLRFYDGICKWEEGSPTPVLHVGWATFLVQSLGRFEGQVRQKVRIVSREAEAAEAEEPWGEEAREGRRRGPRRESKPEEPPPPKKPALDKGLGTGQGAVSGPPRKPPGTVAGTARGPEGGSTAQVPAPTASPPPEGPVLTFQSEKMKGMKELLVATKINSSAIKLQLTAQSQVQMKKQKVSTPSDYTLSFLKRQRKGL
Test: qHTS Assay for Inhibitors Targeting the Menin-MLL Interaction in MLL Related Leukemias: Competition With Texas Red Labeled MLL-derived Mutant Peptide
Conditions: fluorescence polarization; series mostly up to 61.6 µM
Potency is read from the fitted curve at half-maximal effect; tags tell the direction and shape of the fitted curve or compound fluorescence and quenching.

| Structure (SMILES) | Potency |
| --- | --- |
| Cc1ccc(COn2c(-c3ccc(Cl)cc3)nc3ccc([N+](=O)[O-])cc32)cc1 | inconclusive: 22.4 µM [quencher, side channel, single point] |
| COc1ccc(OC)c(/C=N/NC(=S)NCCc2ccccc2)c1 | inconclusive: 28.2 µM [quencher, side channel, partial curve] |
| CCC(C(=O)OCC(=O)Nc1cc(Cl)cc(Cl)c1)c1ccccc1 (centres undefined) | inconclusive: 20 µM [quencher, side channel, partial curve] |
| Cc1ccc(Nc2nc(-c3sc(NC(=O)c4ccc([N+](=O)[O-])cc4)nc3C)cs2)cc1 | inconclusive: 3.16 µM [quencher, side channel, full curve] |
| Clc1cccc(/C(Cc2nc3ccccc3[nH]2)=N\Nc2ccccc2)c1 | inconclusive: 10 µM [quencher, side channel, partial curve] |
| CCCN(CCC)C(=O)C(CCC(=O)O)NC(=O)c1ccccc1 (centres undefined) | inconclusive: 15.8 µM [fluorescent, side channel, partial curve] |
| COc1ccc(N(C(=O)CNC(=O)c2cccs2)C(C(=O)NCC2CCCO2)c2ccccc2)cc1 (centres undefined) | inconclusive: 31.6 µM [inhibitor, single point] |
| O=C1N(Cc2ccc(F)cc2)CCN1c1ccc(F)cc1 | inactive |
| Cc1c(C=O)c2ccccn2c1C(=O)c1ccccc1Cl | inconclusive: 39.8 µM [fluorescent, side channel, single point] |
| C=CCn1c(CCC(=O)O)ccc1-c1ccc(OC)cc1 | inactive |
| Cc1cccc(Cc2c(C)nc3c(C(=O)N4CCN(Cc5ccc6c(c5)OCO6)CC4)cnn3c2C)c1 | inconclusive: 28.2 µM [inhibitor, single point] |
| O=C(Nc1nc2ccccc2s1)c1ccccc1 | inconclusive: 15.8 µM [quencher, side channel, partial curve] |
| COc1cccc(/C=N/NC(=O)c2[nH]nc3c2CCc2ccccc2-3)c1O | inconclusive: 28.2 µM [quencher, side channel, partial curve] |
| COc1ccccc1NC(=O)c1ccccc1NC(=O)c1cccs1 | inconclusive: 25.1 µM [quencher, side channel, single point] |
| CCCCCCCCCCCCCCCC[n+]1ccc(/C=N/O)cc1 | inconclusive: 28.2 µM [inhibitor, partial curve] |
| CC1CCC(N(CCCN)Cc2ccco2)CC1C (centres undefined) | inconclusive: 25.1 µM [inhibitor, partial curve] |
| O=C(c1ccc2c3c(cccc13)CC2)C1CCCN(Cc2cccnc2)C1 (centres undefined) | inconclusive: 25.1 µM [inhibitor, partial curve, poor fit] |
| CCOC(=O)N1CCN(Cc2cc(Cl)c3cccnc3c2O)CC1 | inconclusive: 6.31 µM [fluorescent, side channel, partial curve] |
| Cc1ccc(NC(=O)CSC(N)=O)cc1Cl | inconclusive: 39.8 µM [fluorescent, single point] |
| O=C(CN1C(=O)c2ccccc2C1=O)Nc1sc2c(c1C(=O)NCc1ccco1)CCCC2 | inconclusive: 39.8 µM [inhibitor, single point] |

| Structure (SMILES) | Potency |
| --- | --- |
| CC(C)CN(CC(C)C)CC(O)COc1ccccc1Br (centres undefined) | inconclusive: 17.8 µM [fluorescent, side channel, single point] |
| C/C=C(\C)C(=O)NCCN1C2=NC[C@H](Cc3ccc(O)cc3)N2C[C@@H]1Cc1ccc(OC)cc1 | inconclusive: 20 µM [inhibitor, partial curve] |
| O=C(Nc1cccc(-c2nc3ccccc3[nH]2)c1)c1cccc(NC(=O)c2ccco2)c1 | inconclusive: 22.4 µM [quencher, side channel, single point] |
| Cc1ccccc1Cn1cc(NC(=O)c2cc(-c3cccs3)on2)cn1 | inconclusive: 35.5 µM [inhibitor, single point] |
| Cc1[nH]n(C(N)=S)c(=O)c1N=Nc1ccc([N+](=O)[O-])cc1Cl | inconclusive: 12.6 µM [quencher, side channel, partial curve] |
| Cc1ccc(N=Nc2c(N)[nH]n3c(=O)cc(-c4ccccc4)nc23)cc1 | inconclusive: 11.2 µM [quencher, side channel, partial curve] |
| Cc1ccc(Cn2c(Cc3ccccc3)nc3ccccc32)cc1 | inconclusive: 1.41 µM [fluorescent, side channel, full curve] |
| Cc1cc(C)c2cc(C#N)c(NCCOC(=O)c3ccccc3C)nc2c1 | inactive |
| O=C(O)c1cccc(NC(=O)c2cccc(S(=O)(=O)N3CCc4ccccc4C3)c2)c1 | inconclusive: 39.8 µM [quencher, side channel, single point] |
| N#C/C(=N\Nc1ccccc1F)C(=N)N1CCCCC1 | inconclusive: 1.26 µM [quencher, side channel, full curve, poor fit] |
| C/C(=C1/C(=O)N(c2ccc([N+](=O)[O-])cc2)N=C1c1ccccc1)N(C)C | inconclusive: 14.1 µM [quencher, side channel, partial curve] |
| Cc1ccc(-c2nc(CS(=O)(=O)CC(=O)NCCN3CCOCC3)c(C)o2)cc1 | inactive |
| Oc1c(C(Nc2ccccn2)c2ccccn2)ccc2cccnc12 (centres undefined) | inactive |
| CC(=O)c1cccc(NC(=O)c2ccc(N(Cc3ccccc3C)S(C)(=O)=O)cc2)c1 | inconclusive: 11.2 µM [quencher, side channel, partial curve] |
| CCCN1CCN(CCCNC(=O)c2ccc3c(Cl)c4c(nc3c2)CCCC4)CC1 | inconclusive: 11.2 µM [inhibitor, partial curve] |
| COc1ccccc1N=Nc1[nH]c2ccc(C)cc2c1O | inconclusive: 28.2 µM [quencher, side channel, single point] |
| O=C(NNS(=O)(=O)c1ccc(Cl)cc1)c1cccs1 | inactive |
| COc1ccc(-c2csc(Nc3ccccc3)n2)cc1 | inconclusive: 12.6 µM [quencher, side channel, partial curve] |
| Cc1noc(NS(=O)(=O)c2ccc(NC(=O)/C=C/c3ccc(C(C)C)cc3)cc2)c1C | inconclusive: 7.94 µM [quencher, side channel, partial curve] |
| O=C(COc1ccc(/C=N/NS(=O)(=O)c2ccccc2)cc1)Nc1cccc(Cl)c1 | inconclusive: 5.62 µM [quencher, side channel, partial curve] |

| Structure (SMILES) | Potency |
| --- | --- |
| Cc1noc(C)c1-c1nc(Nc2ccc(F)cc2)c2ccccc2n1 | inconclusive: 35.5 µM [quencher, side channel, single point] |
| CCCCC(=O)Nc1nnc(-c2ccc(OC)cc2)s1 | inactive |
| OC(COc1ccc(F)cc1Cl)CN1CCC(Cc2ccccc2)CC1 (centres undefined) | inconclusive: 17.8 µM [fluorescent, side channel, partial curve] |
| COc1ccc(-n2c(-c3ccc(Br)cc3)c[n+]3c2CCCCC3)cc1 | inconclusive: 39.8 µM [inhibitor, single point] |
| Cc1scc(C(=O)N/N=C/c2ccc(OC(C)C)cc2)c1C | inconclusive: 39.8 µM [inhibitor, single point] |
| COc1ccccc1N1CCN(CC(O)COc2cccc3ccccc23)CC1 (centres undefined) | inconclusive: 7.94 µM [fluorescent, side channel, partial curve] |
| Cc1ccc2cc(C#N)c(SCC(=O)NNC(=O)Cc3ccccc3)nc2c1 | inconclusive: 12.6 µM [inhibitor, partial curve] |
| COc1cc(CC(=O)Nc2nc(-c3ccccc3)c(C(C)=O)s2)cc(OC)c1OC | inconclusive: 14.1 µM [quencher, side channel, partial curve] |
| Cc1csc(N/N=C/c2c(F)cccc2Cl)n1 | inconclusive: 35.5 µM [quencher, side channel, single point] |
| CC1=CC23C(=O)C(C=C(CO)[C@@H](O)[C@]2(O)[C@H]1O)[C@H]1[C@@H](C[C@H]3C)C1(C)C (some centres undefined) | inactive |
| CSCCC(NC(=O)C1CCC(C)CC1)C(=O)N1CCN(c2ccccn2)CC1 (centres undefined) | inconclusive: 31.6 µM [fluorescent, side channel, partial curve] |
| O=C(COC(=O)c1ccc(-c2cnc3ccccc3n2)cc1)c1ccccc1 | inconclusive: 3.55 µM [inhibitor, single point] |
| O=C(NC1CCCc2ccccc21)c1ccc([N+](=O)[O-])cc1 (centres undefined) | inconclusive: 39.8 µM [inhibitor, single point] |
| O=C(CSc1nc2ccccc2c(=O)n1-c1ccc(F)cc1F)c1c[nH]c2ccccc12 | inconclusive: 39.8 µM [inhibitor, single point] |
| Cc1ccc(C(OCC(C)(C)C[N+](C)(C)C)c2ccccc2)cc1 (centres undefined) | inactive |
| COc1cc(NS(=O)(=O)c2ccc(Nc3nc(-c4ccccc4)cs3)cc2)nc(OC)n1 | inconclusive: 17.8 µM [quencher, side channel, single point] |
| Nc1nc2ccccc2n1C(=O)CCc1ccccc1 | inconclusive: 25.1 µM [inhibitor, partial curve] |
| O=C(NCc1ccc2c(c1)OCO2)c1ccc(CS(=O)Cc2cccc(Cl)c2)o1 (centres undefined) | inconclusive: 22.4 µM [inhibitor, partial curve] |
| CC(C)(C)c1ccc(OC(=O)Nc2ccc(O)c(C(=O)O)c2)cc1 | inconclusive: 31.6 µM [quencher, side channel, single point] |

Source: PubChem BioAssay AID1768 (National Center for Advancing Translational Sciences (NCATS), 2009)
